# According to the supplement of paper PMC8728848:
# Some of the results follow.
# Key:
# Assay in all cases: glycan array binding signal (z-score within array); higher = stronger binding
# Conditions in all cases: glycan notation: IUPAC condensed, linker removed
# [1] = target: GlcNAc(b1-4)GlcNAc(b1-4)GlcNAc(b1-4)GlcNAc(b1-4)GlcNAc
# Summary of the method: (§1)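 The binding signal is a Z-score computed within each array. Data were drawn from 3228 arrays in the Consortium for Functional Glycomics database, restricted to those with a known protein sequence. Scores were averaged over arrays of the same protein sequence at different concentrations or buffers, and over linkers, and negative values can be taken as non-binding.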
# [2] = target: GlcNAc(b1-4)GlcNAc(b1-4)GlcNAc(b1-4)GlcNAc(b1-4)GlcNAc(b1-4)GlcNAc
# Summary of the method: as §1
# [3] = target: GlcNAc(b1-4)[GlcNAc(b1-6)]GalNAc
# Summary of the method: as §1
# [4] = target: GlcNAc(b1-6)Gal(b1-4)GlcNAc
# Summary of the method: as §1
# [5] = target: GlcNAc(b1-6)GalNAc
# Summary of the method: as §1
# [6] = target: Kdn(a2-3)Gal(b1-3)GlcNAc
# Summary of the method: as §1
# [7] = target: Kdn(a2-3)Gal(b1-4)GlcNAc
# Summary of the method: as §1
# [8] = target: Man(a1-2)Man(a1-2)Man(a1-3)Man
# Summary of the method: as §1
# [9] = target: Man(a1-2)Man(a1-2)Man(a1-6)[Man(a1-3)]Man
# Summary of the method: as §1
# [10] = target: Man(a1-2)Man(a1-3)Man
# Summary of the method: as §1
# [11] = target: Man(a1-2)Man(a1-3)[Man(a1-2)Man(a1-6)]Man
# Summary of the method: as §1
# [12] = target: Man(a1-2)Man(a1-3)[Man(a1-2)Man(a1-6)]Man(a1-6)[Man(a1-2)Man(a1-2)Man(a1-3)]Man(b1-4)GlcNAc(b1-4)GlcNAc
# Summary of the method: as §1
# [13] = target: Man(a1-2)Man(a1-3)[Man(a1-6)]Man(a1-6)[Man(a1-2)Man(a1-3)]Man(b1-4)GlcNAc(b1-4)GlcNAc
# Summary of the method: as §1
# [14] = target: Man(a1-2)Man(a1-6)[Man(a1-3)]Man(a1-6)[Man(a1-2)Man(a1-2)Man(a1-3)]Man(b1-4)GlcNAc(b1-4)GlcNAc
# Summary of the method: as §1
# [15] = target: Man(a1-3)[Man(a1-6)]Man
# Summary of the method: as §1
# [16] = target: Man(a1-3)[Man(a1-6)]Man(a1-6)[Man(a1-2)Man(a1-3)]Man(b1-4)GlcNAc(b1-4)GlcNAc
# Summary of the method: as §1
# [17] = target: Man(a1-3)[Man(a1-6)]Man(a1-6)[Man(a1-3)]Man(b1-4)GlcNAc(b1-4)GlcNAc
# Summary of the method: as §1
# [18] = target: Man(a1-3)[Man(a1-6)]Man(b1-4)GlcNAc(b1-4)GlcNAc
# Summary of the method: as §1
# [19] = target: Man(b1-4)GlcNAc
# Summary of the method: as §1
# [20] = target: Neu5Ac(a2-3)Gal
# Summary of the method: as §1
# [21] = target: Neu5Ac(a2-3)Gal(b1-3)GalNAc
# Summary of the method: as §1
# [22] = target: Neu5Ac(a2-3)Gal(b1-3)GalNAc(b1-3)Gal(a1-4)Gal(b1-4)Glc
# Summary of the method: as §1
# [23] = target: Neu5Ac(a2-3)Gal(b1-3)GalNAc(b1-3)Gal(b1-4)GlcNAc
# Summary of the method: as §1
# [24] = target: Neu5Ac(a2-3)Gal(b1-3)GalNAc(b1-4)[Neu5Ac(a2-3)]Gal(b1-4)Glc
# Summary of the method: as §1
# [25] = target: Neu5Ac(a2-3)Gal(b1-3)GalNAc6S
# Summary of the method: as §1
# [26] = target: Neu5Ac(a2-3)Gal(b1-3)GlcNAc
# Summary of the method: as §1
# [27] = target: Neu5Ac(a2-3)Gal(b1-3)GlcNAc6S
# Summary of the method: as §1
# [28] = target: Neu5Ac(a2-3)Gal(b1-3)[Fuc(a1-4)]GlcNAc
# Summary of the method: as §1
# [29] = target: Neu5Ac(a2-3)Gal(b1-3)[Fuc(a1-4)]GlcNAc(b1-3)Gal(b1-4)[Fuc(a1-3)]GlcNAc
# Summary of the method: as §1
# [30] = target: Neu5Ac(a2-3)Gal(b1-3)[Neu5Ac(a2-3)Gal(b1-4)]GlcNAc
# Summary of the method: as §1
# [31] = target: Neu5Ac(a2-3)Gal(b1-3)[Neu5Ac(a2-6)]GalNAc
# Summary of the method: as §1
# [32] = target: Neu5Ac(a2-3)Gal(b1-4)Glc
# Summary of the method: as §1
# [33] = target: Neu5Ac(a2-3)Gal(b1-4)GlcNAc
# Summary of the method: as §1
# [34] = target: Neu5Ac(a2-3)Gal(b1-4)GlcNAc(b1-3)Gal(b1-4)GlcNAc
# Summary of the method: as §1
# [35] = target: Neu5Ac(a2-3)Gal(b1-4)GlcNAc(b1-3)Gal(b1-4)GlcNAc(b1-3)Gal(b1-4)GlcNAc
# Summary of the method: as §1
# [36] = target: Neu5Ac(a2-3)Gal(b1-4)GlcNAc(b1-3)Gal(b1-4)[Fuc(a1-3)]GlcNAc
# Summary of the method: as §1
# [37] = target: Neu5Ac(a2-3)Gal(b1-4)GlcNAc6S
# Summary of the method: as §1
binder,measurement,setting,value
"MMR (Homo sapiens), P22897 (protein) MRLPLLLVFASVIPGAVLLLDTRQFLIYNEDHKRCVDAVSPSAVQTAACNQDAESQKFRWVSESQIMSVAFKLCLGVPSKTDWVAITLYACDSKSEFQKWECKNDTLLGIKGEDLFFNYGNRQEKNIMLYKGSGLWSRWKIYGTTDNLCSRGYEAMYTLLGNANGATCAFPFKFENKWYADCTSAGRSDGWLWCGTTTDYDTDKLFGYCPLKFEGSESLWNKDPLTSVSYQINSKSALTWHQARKSCQQQNAELLSITEIHEQTYLTGLTSSLTSGLWIGLNSLSFNSGWQWSDRSPFRYLNWLPGSPSAEPGKSCVSLNPGKNAKWENLECVQKLGYICKKGNTTLNSFVIPSESDVPTHCPSQWWPYAGHCYKIHRDEKKIQRDALTTCRKEGGDLTSIHTIEELDFIISQLGYEPNDELWIGLNDIKIQMYFEWSDGTPVTFTKWLRGEPSHENNRQEDCVVMKGKDGYWADRGCEWPLGYICKMKSRSQGPEIVEVEKGCRKGWKKHHFYCYMIGHTLSTFAEANQTCNNENAYLTTIEDRYEQAFLTSFVGLRPEKYFWTGLSDIQTKGTFQWTIEEEVRFTHWNSDMPGRKPGCVAMRTGIAGGLWDVLKCDEKAKFVCKHWAEGVTHPPKPTTTPEPKCPEDWGASSRTSLCFKLYAKGKHEKKTWFESRDFCRALGGDLASINNKEEQQTIWRLITASGSYHKLFWLGLTYGSPSEGFTWSDGSPVSYENWAYGEPNNYQNVEYCGELKGDPTMSWNDINCEHLNNWICQIQKGQTPKPEPTPAPQDNPPVTEDGWVIYKDYQYYFSKEKETMDNARAFCKRNFGDLVSIQSESEKKFLWKYVNRNDAQSAYFIGLLISLDKKFAWMDGSKVDYVSWATGEPNFANEDENCVTMYSNSGFWNDINCGYPNAFICQRHNSSINATTVMPTMPSVPSGCKEGWNFYSNKCFKIFGFMEEERKNWQEARKACIGFGGNLVSIQNEKEQAFLTYHMKDSTFSAWTGLNDVNSEHTFLWTDGRGVHYTNWGKGYPGGRRSSLSYEDADCVVIIGGASNEAGKWMDDTCDSKRGYICQTRSDPSLTNPPATIQTDGFVKYGKSSYSLMRQKFQWHEAETYCKLHNSLIASILDPYSNAFAWLQMETSNERVWIALNSNLTDNQYTWTDKWRVRYTNWAADEPKLKSACVYLDLDGYWKTAHCNESFYFLCKRSDEIPATEPPQLPGRCPESDHTAWIPFHGHCYYIESSYTRNWGQASLECLRMGSSLVSIESAAESSFLSYRVEPLKSKTNFWIGLFRNVEGTWLWINNSPVSFVNWNTGDPSGERNDCVALHASSGFWSNIHCSSYKGYICKRPKIIDAKPTHELLTTKADTRKMDPSKPSSNVAGVVIIVILLILTGAGLAAYFFYKKRRVHLPQEGAFENTLYFNSQSSPGTSDMKDLVGNIEQNEHSVI",glycan array binding signal (z-score),[1],-0.455
same,glycan array binding signal (z-score),[2],-0.44
same,glycan array binding signal (z-score),[3],-0.439
same,glycan array binding signal (z-score),[4],-0.429
same,glycan array binding signal (z-score),[5],-0.446
same,glycan array binding signal (z-score),[6],-0.406
same,glycan array binding signal (z-score),[7],0.013
same,glycan array binding signal (z-score),[8],0.712
same,glycan array binding signal (z-score),[9],0.444
same,glycan array binding signal (z-score),[10],-0.256
same,glycan array binding signal (z-score),[11],0.011
same,glycan array binding signal (z-score),[12],0.289
same,glycan array binding signal (z-score),[13],1.23
same,glycan array binding signal (z-score),[14],1.31
same,glycan array binding signal (z-score),[15],3.57
same,glycan array binding signal (z-score),[16],2.45
same,glycan array binding signal (z-score),[17],2.86
same,glycan array binding signal (z-score),[18],3.27
same,glycan array binding signal (z-score),[19],-0.33
same,glycan array binding signal (z-score),[20],-0.403
same,glycan array binding signal (z-score),[21],-0.417
same,glycan array binding signal (z-score),[22],-0.364
same,glycan array binding signal (z-score),[23],-0.336
same,glycan array binding signal (z-score),[24],-0.394
same,glycan array binding signal (z-score),[25],-0.344
same,glycan array binding signal (z-score),[26],-0.4
same,glycan array binding signal (z-score),[27],-0.304
same,glycan array binding signal (z-score),[28],-0.427
same,glycan array binding signal (z-score),[29],1.53
same,glycan array binding signal (z-score),[30],-0.374
same,glycan array binding signal (z-score),[31],-0.337
same,glycan array binding signal (z-score),[32],-0.428
same,glycan array binding signal (z-score),[33],-0.402
same,glycan array binding signal (z-score),[34],-0.439
same,glycan array binding signal (z-score),[35],-0.442
same,glycan array binding signal (z-score),[36],0.843
same,glycan array binding signal (z-score),[37],-0.22
